Measured values as given in the supplement of paper PMC4967469.
IC50 is the fitted dose that halves viability relative to control wells, and lower means more sensitive; where the fit passes the top or lowest dose, that dose stands as a limit. AUC sums up the same curve from the lowest dose to the 256-fold higher top dose: 1 means no effect, lower means more sensitive. For part of these data: The top dose, if marked as inferred, comes from the curve model; the source does not state it.

Legend:
Assay in all cases: Viability of human cancer cell lines after 72 h of drug (GDSC screen)
GSK-650394 = compound: O=C(O)c1ccc(-c2c[nH]c3ncc(-c4ccccc4)cc23)cc1C1CCCC1 [GSK-650394]; settings: top dose 16 µM; top dose inferred
Experimental: (§1)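 Human cancer cell lines in 384-well plates, medium with 10% serum, drug for 72 h over a 256-fold dose range (nine 2-fold or five 4-fold steps up to the top dose). Adherent lines were fixed and stained with the nucleic acid dye Syto60, suspension lines read with resazurin; signal relative to control wells, capped at 0 and 100%. One two-parameter sigmoid per drug and line, fitted in a mixed model over all curves with the slope shared within a line.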

AZD7762 = compound: NC(=O)Nc1cc(-c2cccc(F)c2)sc1C(=O)N[C@H]1CCCNC1 [AZD7762]; settings: top dose 2 µM
Experimental: as §1

Bexarotene = compound: C=C(c1ccc(C(=O)O)cc1)c1cc2c(cc1C)C(C)(C)CCC2(C)C [Bexarotene]; settings: top dose 8 µM
Experimental: as §1

Etoposide = compound: COc1cc([C@@H]2c3cc4c(cc3[C@@H](O[C@@H]3O[C@@H]5CO[C@@H](C)O[C@H]5[C@H](O)[C@H]3O)[C@H]3COC(=O)[C@H]23)OCO4)cc(OC)c1O [Etoposide]; settings: top dose 16 µM
Experimental: as §1

YK 4-279 = compound: COc1ccc(C(=O)CC2(O)C(=O)Nc3c(Cl)ccc(Cl)c32)cc1 [YK 4-279]; settings: top dose 10 µM
Experimental: as §1

XAV 939 = compound: Oc1nc(-c2ccc(C(F)(F)F)cc2)nc2c1CSCC2 [XAV 939]; settings: top dose 5 µM; top dose inferred
Experimental: as §1

NPK76-II-72-1 = compound: COc1cc(C(=O)NC2CCN(C)CC2)ccc1Nc1ncc2c(n1)N(C1CCCC1)C(C)CC(=O)N2C [NPK76-II-72-1]; settings: top dose 10.24 µM; top dose inferred
Experimental: as §1

BMS-345541 = compound: Cc1ccc2nc(NCCN)c3ncc(C)n3c2c1 [BMS-345541]; settings: top dose 16 µM
Experimental: as §1

Row | Cell Line | AUC (GSK-650394) | IC50 (GSK-650394) | AUC (AZD7762) | IC50 (AZD7762) | AUC (Bexarotene) | IC50 (Bexarotene) | AUC (Etoposide) | IC50 (Etoposide) | AUC (YK 4-279) | IC50 (YK 4-279) | AUC (XAV 939) | IC50 (XAV 939) | AUC (NPK76-II-72-1) | IC50 (NPK76-II-72-1) | AUC (BMS-345541) | IC50 (BMS-345541)
1 | SCC-4 (head and neck, adherent) | 0.853 | > 16 µM | 0.801 | 1.2 µM | 0.905 | > 8 µM | 0.744 | 5.82 µM | 0.706 | 2.69 µM | 0.962 | > 5 µM | 0.948 | > 10.2 µM | 0.937 | > 16 µM
2 | SCC-25 (head and neck, adherent) | 0.93 | > 16 µM | 0.9 | > 2 µM | 0.983 | > 8 µM | 0.738 | 5.31 µM | 0.855 | 9.67 µM | 0.929 | > 5 µM | 0.866 | > 10.2 µM | 0.773 | 7.07 µM
3 | SCH (stomach, adherent) | 0.988 | > 16 µM | 0.857 | 1.83 µM | 0.973 | > 8 µM | 0.988 | > 16 µM | 0.958 | > 10 µM | 0.943 | > 5 µM | 0.988 | > 10.2 µM | 0.942 | > 16 µM
4 | SF539 (glioma, adherent) | 0.976 | > 16 µM | 0.455 | 0.0954 µM | 0.987 | > 8 µM | 0.549 | 1.34 µM | 0.658 | 1.63 µM | 0.976 | > 5 µM | 0.82 | 5.12 µM | 0.88 | 13.7 µM
5 | SH-4 (melanoma, adherent) | 0.836 | > 16 µM | 0.851 | > 2 µM | 0.819 | > 8 µM | 0.626 | 2.69 µM | 0.952 | > 10 µM | 0.854 | > 5 µM | 0.879 | > 10.2 µM | 0.877 | > 16 µM
6 | SHP-77 (small cell lung carcinoma, semi-adherent) | 0.989 | > 16 µM | 0.968 | > 2 µM | 0.991 | > 8 µM | 0.97 | > 16 µM | 0.585 | 1.04 µM | 0.991 | > 5 µM | 0.908 | > 10.2 µM | 0.884 | 14 µM
7 | SIMA (neuroblastoma, adherent) | 0.952 | > 16 µM | 0.493 | 0.119 µM | 0.977 | > 8 µM | 0.777 | 7.29 µM | 0.733 | 3.2 µM | 0.984 | > 5 µM | 0.816 | 6.64 µM | 0.925 | > 16 µM
8 | SISO (cervix, adherent) | 0.762 | 5.52 µM | 0.695 | 0.43 µM | 0.855 | 5.95 µM | 0.346 | 0.382 µM | 0.639 | 1.49 µM | 0.938 | > 5 µM | 0.953 | > 10.2 µM | 0.918 | > 16 µM
9 | SJRH30 (rhabdomyosarcoma, adherent) | 0.927 | > 16 µM | 0.23 | 0.0199 µM | 0.94 | > 8 µM | 0.727 | 4.53 µM | 0.755 | 3.48 µM | 0.985 | > 5 µM | 0.891 | > 10.2 µM | 0.854 | 13.3 µM
10 | SK-ES-1 (Ewing sarcoma, semi-adherent) | 0.733 | 4.87 µM | 0.784 | 0.905 µM | 0.938 | > 8 µM | 0.461 | 0.779 µM | 0.724 | 2.85 µM | 0.976 | > 5 µM | 0.849 | 8.45 µM | 0.866 | 15.8 µM
11 | SK-LMS-1 (soft tissue, adherent) | 0.675 | 3 µM | 0.656 | 0.331 µM | 0.853 | 5.76 µM | 0.435 | 0.669 µM | 0.545 | 0.823 µM | 0.978 | > 5 µM | 0.821 | 5.55 µM | 0.848 | 11.1 µM
12 | SK-MEL-1 (melanoma, suspension) | 0.993 | > 16 µM | 0.992 | > 2 µM | 0.992 | > 8 µM | 0.989 | > 16 µM | 0.97 | > 10 µM | 0.973 | > 5 µM | 0.993 | > 10.2 µM | 0.965 | > 16 µM
13 | SK-MEL-3 (melanoma, adherent) | 0.872 | > 16 µM | 0.898 | > 2 µM | 0.981 | > 8 µM | 0.825 | 11.7 µM | 0.882 | > 10 µM | 0.983 | > 5 µM | 0.919 | > 10.2 µM | 0.884 | > 16 µM
14 | SK-MEL-24 (melanoma, adherent) | 0.983 | > 16 µM | 0.867 | > 2 µM | 0.944 | > 8 µM | 0.93 | > 16 µM | 0.806 | 6.42 µM | 0.898 | > 5 µM | 0.969 | > 10.2 µM | 0.98 | > 16 µM
15 | SK-N-DZ (neuroblastoma, adherent) | 0.922 | > 16 µM | 0.755 | 0.671 µM | 0.963 | > 8 µM | 0.922 | > 16 µM | 0.592 | 1.12 µM | 0.987 | > 5 µM | 0.978 | > 10.2 µM | 0.956 | > 16 µM
